Assay results from publication PMC4499112.
Positions count from the first letter of the chain named. No constants are given. Whether binding was seen depends on the method and setting. Binding seen in cells or lysates may run through a third protein. Some binding calls cover weakened binding; strength is not graded here. Where a sequence is shown, tags or fusion partners need not be part of it. Blank lines part the entries; values can stand above or below the binder they belong to.

Key:
[1] = target: T1, GST-Noc2 WT (UniProt O54880); experiment: pull-down; GST-Noc2 WT or AAA on glutathione beads; lysate of rat adipocytes expressing FLAG-Rab3B, loaded with GTPγS; anti-FLAG immunoblot; only the target purified
T1 sequence: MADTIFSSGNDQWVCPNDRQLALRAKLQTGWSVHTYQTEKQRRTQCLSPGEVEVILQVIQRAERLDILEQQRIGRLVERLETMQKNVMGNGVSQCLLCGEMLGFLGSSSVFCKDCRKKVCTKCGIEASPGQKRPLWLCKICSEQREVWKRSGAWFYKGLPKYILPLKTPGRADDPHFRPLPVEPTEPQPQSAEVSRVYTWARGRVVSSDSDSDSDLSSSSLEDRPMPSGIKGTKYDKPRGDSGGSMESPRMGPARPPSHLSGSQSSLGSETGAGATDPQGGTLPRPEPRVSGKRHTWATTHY

[2] = target: T2, GST-Noc2^AAA (UniProt O54880); experiment: as above
T2 sequence: T1 sequence with W154A, F155A, Y156A

[3] = target: T1, GST-Noc2 WT; experiment: pull-down; GST-Noc2 WT on glutathione beads or MBP-Noc2 WT on amylose beads; lysate of basal or insulin-treated (also wortmannin before insulin) rat adipocytes overexpressing FLAG-Rab3B, 2 h at 4°C; anti-FLAG immunoblot; only the target purified
[4] = target: T3, maltose-binding protein (MBP)-Noc2 WT (UniProt O54880); experiment: as above
T3 sequence: T1 sequence

[5] = target: T4, FLAG-Rab3B^Q81L (rat) (UniProt Q63941); experiment: pull-down; FLAG-Rab3B mutants from HEK293T cells immobilised on anti-FLAG-antibody agarose beads, washed, incubated 2 h with whole-cell lysate of basal or insulin-stimulated rat adipocytes; high-salt elution; immunoblot for Noc2; only the target purified
T4 sequence: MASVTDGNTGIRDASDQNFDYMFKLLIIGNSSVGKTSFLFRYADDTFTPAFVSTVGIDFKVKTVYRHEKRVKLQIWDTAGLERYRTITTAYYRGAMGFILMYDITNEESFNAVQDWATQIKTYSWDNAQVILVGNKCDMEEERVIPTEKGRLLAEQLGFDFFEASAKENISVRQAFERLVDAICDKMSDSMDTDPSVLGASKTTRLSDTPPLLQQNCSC

[6] = target: T5, FLAG-Rab3B^T36N (rat) (UniProt Q63941); experiment: as above
T5 sequence: T4 sequence with T36N, L81Q

binding [1]: binds
binding [2]: no binding
binding [3]: binds
binding [4]: binds
B1: FLAG-Rab3B (wild type) (protein, UniProt Q63941 1-219)
chain: T4 sequence with L81Q

binding [5]: no binding
binding [6]: binds
B2: Noc2 (endogenous, rat adipocytes) (protein, UniProt O54880 1-302)
chain: T1 sequence
